Consider 59 compounds from PubChem BioAssay AID360 (National Center for Advancing Translational Sciences (NCATS), 2006).

About 550 (1.1%) of roughly 48,000 compounds were called active. Roughly 4% stayed inconclusive and do not appear here. Cut-off read from the data, not from the text of the source: active = potency below about 15 µM; inconclusive = mostly about 16 µM to 33 µM; inactive = weaker than that. This is one part of the list.
Potency is the fitted concentration of half-maximal effect.

This experiment deals with Lysosomal acid glucosylceramidase (Homo sapiens) (UniProt P04062). The experiment in a line: Glucocerebrosidase.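 Note: the screen sought inhibitors.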 Particulars: purified enzyme, resorufin glucoside fluorescence (screen aimed at inhibitors), 20 min. In short, it runs like this: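 Compounds titrated against 0.2 nM normal enzyme, 30 uM resorufin beta-D-glucopyranoside substrate, citrate/phosphate buffer with taurocholate and tween-20, pH 5.9. Reaction ran 20 min at room temperature; fluorescence (Ex 548/Em 600) gave AC50.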
UniProt P04062, sequence (P04062 whole entry, looked up): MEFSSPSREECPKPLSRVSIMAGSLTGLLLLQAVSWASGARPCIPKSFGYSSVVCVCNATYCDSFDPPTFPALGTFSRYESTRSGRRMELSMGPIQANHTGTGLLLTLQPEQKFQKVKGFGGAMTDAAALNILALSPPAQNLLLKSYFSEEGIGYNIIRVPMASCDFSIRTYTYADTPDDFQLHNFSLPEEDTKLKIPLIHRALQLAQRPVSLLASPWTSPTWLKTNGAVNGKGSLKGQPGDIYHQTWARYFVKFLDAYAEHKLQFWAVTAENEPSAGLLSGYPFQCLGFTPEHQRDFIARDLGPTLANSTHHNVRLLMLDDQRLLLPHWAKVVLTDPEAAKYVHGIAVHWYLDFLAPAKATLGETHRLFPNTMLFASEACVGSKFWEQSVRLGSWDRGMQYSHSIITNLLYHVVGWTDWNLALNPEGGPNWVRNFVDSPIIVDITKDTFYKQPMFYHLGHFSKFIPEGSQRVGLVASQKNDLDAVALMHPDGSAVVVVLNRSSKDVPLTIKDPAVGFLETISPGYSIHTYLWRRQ
For `Cn1c(=NC(=O)CSCC(=O)N2CCCCC2)sc2ccccc21`, the Potency is inactive: > 76.9 µM.
Take `CCOC(=O)N1CCN(C(=O)Cc2ccc(C)cc2)CC1`: the Potency was inactive: > 76.9 µM.
On to `Cc1ccc(-c2csc3nnc(SCC(=O)Nc4cccc(C)n4)n23)cc1`, for which the Potency was inactive: > 76.9 µM.
On to `COC(=O)C(C#N)c1nc2ccccc2nc1N1CCCC1` (centres undefined), for which the Potency was inactive: > 76.9 µM.
For `O=c1c2ccccc2oc2ncccc12`, the Potency is inactive: > 76.9 µM.
On to `CCOc1ccc2oc(-c3ccccc3)c(C(=O)O)c2c1`, for which the Potency is inactive: > 76.9 µM.
`Cc1c(NC(=O)NCc2ccccc2)c(=O)n(-c2ccccc2)n1C`: the Potency was inactive: > 76.9 µM.
`COc1ccc(-c2nc3ccccc3c(=O)n2CCN2CCOCC2)cc1`: the Potency was inactive: > 76.9 µM.
As to `CN(C)P(=NC(=O)COc1ccc(Cl)cc1Cl)(N(C)C)N(C)C`, the Potency was inactive: > 76.9 µM.
For the compound `O=c1c2ccccc2nc2c3ccccc3c3nncn3n12`, the Potency is inactive: > 76.9 µM.
For the compound `Fc1ccc(C2CC(c3ccccc3)n3ncnc3N2)cc1` (centres undefined), the Potency was inactive: > 76.9 µM.
For `COC(=O)C1=C(N)Oc2cc(C)n(Cc3cccnc3)c(=O)c2C1c1ccc(OC)c(OC)c1` (centres undefined), the Potency is inactive: > 76.9 µM.
Under `Cc1c(NCc2nc3ccccc3[nH]2)c(=O)n(-c2ccccc2)n1C` stands inactive: > 76.9 µM.
As for `COc1ccc(N2CCN(c3oc(-c4ccc(OC)c(OC)c4)nc3C#N)CC2)cc1`, the Potency is inactive: > 76.9 µM.
Consider `Cc1ccc(NC(=O)CSc2nnc(COc3ccc(C#N)cc3)n2-c2ccccc2)cc1C`, for which the Potency was inactive: > 76.9 µM.
As to `O=C(CSc1ncnc2c1oc1ccccc12)Nc1ccc2c(c1)OCCO2`, the Potency entry was “inactive”.
In the case of `Cc1cc(NC(=O)CSc2nccn2-c2ccc(Cl)cc2)no1`, the Potency was inactive: > 76.9 µM.
Under `c1ccc2c(c1)OCC(c1nn3cnnc3s1)O2` (centres undefined) stands inactive: > 76.9 µM.
The figure for `c1nc(NCCN2CCOCC2)c2c3c(sc2n1)CCCCC3` is active: 7.49 µM; for `Cn1nnnc1Sc1nc(-c2cccnc2)nc2ccccc12` it is inactive: > 76.9 µM.
As to `CCC1C(=O)N=C(SCC(=O)Nc2ccc(C(=O)OC)cc2)NC1=O` (centres undefined), the Potency is inactive: > 76.9 µM.
Under `O=C(COC(=O)C1CCCN1C(=O)c1cccs1)Nc1ccc2c(c1)OCO2` (centres undefined) stands inactive: > 76.9 µM; under `CCc1c(C)sc(NC(=O)c2cc(-c3ccco3)on2)c1C#N`, inactive: > 76.9 µM; under `O=C(NCc1cccs1)c1noc2c1CCCCC2`, inactive: > 76.9 µM.
Regarding `C=CCC(O)(CCN1CCCCC1)c1ccccc1` (centres undefined), the Potency is inactive: > 76.9 µM.
As to `COc1ccc(N2C(=O)CC(N3CCN(c4nc5ccccc5s4)CC3)C2=O)cc1` (centres undefined), the Potency was inactive: > 76.9 µM.
Take `COc1ccccc1-c1cc(C(F)(F)F)nc(S(=O)(=O)CCCC(=O)N2CCOCC2)n1`: the Potency was inactive: > 76.9 µM.
As for `CC1Oc2ccccc2N(CC(=O)NCCc2ccccc2)C1=O` (centres undefined), the Potency was inactive: > 76.9 µM.
As for `Cc1ccc(-n2ncc3c(=O)n(CC#N)cnc32)cc1C`, the Potency was inactive: > 76.9 µM.
`COc1ccc(S(=O)(=O)Nc2ccc(Cl)cn2)c(C)c1C`: the Potency was inactive: > 76.9 µM.
For the compound `Cc1cc(C)n2cc(CSc3nnnn3-c3ccccc3)nc2n1`, the Potency is inactive: > 76.9 µM.
With `CCOC(=O)N1CCN(C(=O)c2ccc(-n3c(=S)[nH]c4ccccc4c3=O)cc2)CC1`, the Potency was inactive: > 76.9 µM.
Under `Cc1cc(C)c(C)c(S(=O)(=O)NCc2ccco2)c1C` stands inactive: > 76.9 µM.
In the case of `Cc1cc(N2C(=O)C(=O)/C(=C(/O)c3ccc(F)cc3)C2c2ccc(Cl)cc2)no1` (centres undefined), the Potency is inactive: > 76.9 µM.
As to `Cc1ccc(NC(=O)N2CCC(C(=O)NCCC3=CCCCC3)CC2)cc1`, the Potency is inactive: > 76.9 µM.
Consider `CCn1c(NCc2ccco2)nc2c1c(=O)n(C)c(=O)n2C`, for which the Potency is inactive: > 76.9 µM.
For the compound `CCOC(=O)c1ccc(N2C(=O)C(O)=C(C(C)=O)C2c2ccc(O)c(OC)c2)cc1` (centres undefined), the Potency is inactive: > 76.9 µM.
Turning to `CC(C)CCNC(=O)NC(=O)COC(=O)C1=COCCO1`, the Potency is inactive: > 76.9 µM.
With `COc1ccc2[nH]c(O)c(NC(C)=O)c2c1`, the Potency was inactive: > 76.9 µM.
For the compound `Cc1c(NC(=O)CSc2nncc3ccccc23)c(=O)n(-c2ccccc2)n1C`, the Potency was inactive: > 76.9 µM.
In the case of `CC(=O)c1ccc(NC(=O)Cn2nc(C)cc2C)cc1`, the Potency is inactive: > 76.9 µM.
With `CCCC(=O)c1ccc(N2CCN(C(=O)OCC)CC2)c(F)c1`, the Potency was inactive: > 76.9 µM.
Regarding `Cc1ccccc1N1CCN(Cc2cccc(C(=O)O)c2)CC1`, the Potency is inactive: > 76.9 µM.
As for `c1cncc(CNc2c3c(nc4nnnn24)CCCC3)c1`, the Potency is inactive: > 76.9 µM.
Regarding `COc1cc(C(=O)OC(C)CN2CCOCC2)cc(OC)c1OC` (centres undefined), the Potency is inactive: > 76.9 µM.
Under `CCOc1cccc(OCCCCN2CCCCC2)c1` stands inactive: > 76.9 µM; under `Cc1cccc2sc(NC(=O)CN(C)S(=O)(=O)c3cccs3)nc12`, inactive: > 76.9 µM.
In the case of `COc1ccc(OC)c(C(c2nnnn2C2CCCC2)N2CCc3ccccc3C2)c1` (centres undefined), the Potency result is “inactive”.
The figure for `COc1ccc(S(=O)(=O)N2CCCCC2)cc1Br` is inactive: > 76.9 µM; for `Cc1nc2ccc(NC(=O)Cc3cccs3)cc2s1` it is inactive: > 76.9 µM; for `O=C(NCC1CCCO1)c1ccc2c(=O)n(CCc3ccccc3)c(=O)[nH]c2c1` (centres undefined) it is inactive: > 76.9 µM.
Consider `CCCS(=O)(=O)Nc1c(C(=O)O)[nH]c2ccccc12`, for which the Potency was inactive: > 76.9 µM.
On to `CCCN(C(=O)Cc1nc(N)n[nH]1)C1(C(=O)Nc2c(C)cccc2C)CCCCC1`, for which the Potency is inactive: > 76.9 µM.
Under `Cc1nc(SCC(=O)N2CCN(C(=O)c3ccco3)CC2)c2c(C)c(C)sc2n1` stands inactive: > 76.9 µM; under `C=CCn1c(Cc2nc3ccc(Cl)cc3[nH]2)n[nH]c1=S`, inactive: > 76.9 µM; under `O=C(NCc1ccccc1)C1CCN(S(=O)(=O)N2CCOCC2)CC1`, inactive: > 76.9 µM.
In the case of `COCCNC(=O)c1ccc2c(c1)NC(=O)CS2`, the Potency is inactive: > 76.9 µM.
For `COc1ccc(-c2nnn(CC(=O)N(C3CCCCC3)C(C)C(=O)NC3CCCC3)n2)cc1OC` (centres undefined), the Potency is inactive: > 76.9 µM.
Turning to `COCCn1c(SCc2nc3sc(C(=O)OC)c(C)c3c(=O)[nH]2)nc2ccccc21`, the Potency was inactive: > 76.9 µM.
